Data on 43 compounds can be found in PMC4336329 (PLoS ONE, 2015).

Hit rate of the full screen: of about 310,000 compounds, about 2,200 (0.71%) showed an effect of 50% or more. The effect is printed as a negative number. Some of the results follow. Where a SMILES comes first, the peptide text is derived from it. The star is where a group is joined. OBn = c1ccc(CO*)cc1

The target in this experiment is human ether-à-go-go-related gene (hERG) potassium channel (human, UniProt Q12809). Nature of the experiment: primary screen, population patch clamp on CHO cells stably expressing hERG.
Chain of human ether-à-go-go-related gene (hERG) potassium channel (Q12809 whole entry, looked up): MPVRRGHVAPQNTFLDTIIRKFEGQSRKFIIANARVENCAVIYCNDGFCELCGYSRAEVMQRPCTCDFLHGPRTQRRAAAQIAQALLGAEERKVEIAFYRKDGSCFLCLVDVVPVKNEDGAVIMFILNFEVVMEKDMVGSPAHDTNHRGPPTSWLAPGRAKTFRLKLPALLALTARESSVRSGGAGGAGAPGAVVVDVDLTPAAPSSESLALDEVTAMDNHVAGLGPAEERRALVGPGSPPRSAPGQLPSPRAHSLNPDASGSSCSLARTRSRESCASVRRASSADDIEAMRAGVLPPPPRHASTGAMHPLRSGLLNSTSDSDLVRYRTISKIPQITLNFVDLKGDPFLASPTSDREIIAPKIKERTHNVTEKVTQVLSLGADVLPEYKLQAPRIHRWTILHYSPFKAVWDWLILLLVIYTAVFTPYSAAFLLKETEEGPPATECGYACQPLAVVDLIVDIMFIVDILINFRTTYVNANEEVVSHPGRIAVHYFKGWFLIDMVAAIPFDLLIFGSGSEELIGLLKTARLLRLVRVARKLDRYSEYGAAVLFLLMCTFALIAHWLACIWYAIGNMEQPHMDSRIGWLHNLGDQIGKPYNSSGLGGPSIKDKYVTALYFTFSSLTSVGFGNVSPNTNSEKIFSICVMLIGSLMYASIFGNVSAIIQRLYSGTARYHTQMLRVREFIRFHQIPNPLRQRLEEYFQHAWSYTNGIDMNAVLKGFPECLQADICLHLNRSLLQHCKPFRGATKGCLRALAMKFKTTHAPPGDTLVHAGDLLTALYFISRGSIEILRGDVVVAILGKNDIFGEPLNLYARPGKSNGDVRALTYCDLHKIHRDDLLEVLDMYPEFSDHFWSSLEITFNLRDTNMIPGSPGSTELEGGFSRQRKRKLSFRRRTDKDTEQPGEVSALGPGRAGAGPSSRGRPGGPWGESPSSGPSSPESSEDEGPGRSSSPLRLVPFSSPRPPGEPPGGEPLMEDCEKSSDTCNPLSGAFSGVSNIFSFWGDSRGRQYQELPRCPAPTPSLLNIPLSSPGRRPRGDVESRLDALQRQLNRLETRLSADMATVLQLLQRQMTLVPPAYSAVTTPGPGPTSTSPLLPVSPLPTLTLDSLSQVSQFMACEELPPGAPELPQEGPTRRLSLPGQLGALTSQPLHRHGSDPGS
Regarding `CC1=C(C(=O)N2CCOCC2)C(c2ccc(C)cc2)NC(=S)N1` (stereo not shown), the “hERG current change (%, negative = inhibition) at 1uM” value came out at 10.5%.

With `COc1ccc([C@@H]2[C@@H]3C(=O)N(C(C)(C)C)C(=O)[C@@H]3[C@]3(C)C(=O)N(c4cccc(C)c4)C(=O)N23)cc1`, the “hERG current change (%, negative = inhibition) at 1uM” value was found to be 3%.

Take `COc1ccc(NC(=O)/C(=C\c2ccc(OC)c(OC)c2)NC(=O)c2ccco2)cc1`: the “hERG current change (%, negative = inhibition) at 1uM” value is reported as 2.31%.

For `CC(=O)c1ccccc1NC(=O)COC(=O)C1CCCN1S(=O)(=O)c1ccccc1F` (stereo not shown), the “hERG current change (%, negative = inhibition) at 1uM” value is 15%.

As for `COc1ccccc1OC(C)c1nnc(SCC(=O)Nc2c(C)n(C)n(-c3ccccc3)c2=O)n1-c1ccccc1` (stereo not shown), the “hERG current change (%, negative = inhibition) at 1uM” value came to 4.88%.

In the case of `CCN(CC)S(=O)(=O)c1ccc(N2CCOCC2)c(NC(=O)CC(C)(C)C)c1`, the “hERG current change (%, negative = inhibition) at 1uM” value amounted to 8.32%.

With `CC(=O)NS(=O)(=O)c1ccc(NC(=O)COc2cccc3c2OC(C)(C)C3)cc1`, the “hERG current change (%, negative = inhibition) at 1uM” value came to 4.07%.

With `O=C1C(C2=NC(c3ccccn3)C3C(=O)N(c4ccc(OC(F)(F)F)cc4)C(=O)C23)=C(O)c2ccccc21` (stereo not shown), the “hERG current change (%, negative = inhibition) at 1uM” value is listed as 17.2%.

Regarding `Cl.NCC(=O)NCC(=O)OCc1ccccc1` (H-Gly-Gly-OBn), the “hERG current change (%, negative = inhibition) at 1uM” value stood at 4.62%.

On to `CCc1c(C)nc2ncnn2c1N1CCC(C(=O)N2CCN(c3ccc(F)cc3)CC2)CC1`, for which the “hERG current change (%, negative = inhibition) at 1uM” value is -33.7%.

On to `O=C(Nc1ccccc1F)N1CCC(NC(=O)C23CC4CC(CC(C4)C2)C3)CC1`, for which the “hERG current change (%, negative = inhibition) at 1uM” value was 13.3%.

In the case of `CCCCN(C1CCS(=O)(=O)C1)S(=O)(=O)c1ccc(OC)cc1` (stereo not shown), the “hERG current change (%, negative = inhibition) at 1uM” value is -0.331%.

Take `Cc1ccc(CNC(=O)C2c3ccccc3C(=O)N(C)C2c2c[nH]c3ccccc23)o1` (stereo not shown): the “hERG current change (%, negative = inhibition) at 1uM” value is given as 2.99%.

With `CC(=O)Nc1ccc(C(=O)n2cnc3cc(C)c(C)cc32)cc1`, the “hERG current change (%, negative = inhibition) at 1uM” value stood at 5.02%.

Consider `CC(C)C[C@H]1CN=C(Nc2ccccc2)N1CCC1CCCC1`, for which the “hERG current change (%, negative = inhibition) at 1uM” value was -21.4%.

In the case of `Cc1ccc(S(=O)(=O)c2n[nH]n3c2nc(=O)c2ccccc23)cc1`, the “hERG current change (%, negative = inhibition) at 1uM” value turned out to be 3.8%.

Turning to `COc1ccc(N2CCCC2)c(NC(=O)COc2ccccc2)c1`, the “hERG current change (%, negative = inhibition) at 1uM” value was determined as 9.19%.

Consider `O=C(COc1ccc2c3c(c(=O)oc2c1)CCC3)NCCN1CCOCC1`, for which the “hERG current change (%, negative = inhibition) at 1uM” value is 3.14%.

Turning to `O=C(COC(=O)C1CC(=O)N(c2ccc3c(c2)OCCO3)C1)Nc1ccc2c(c1)CCC2` (stereo not shown), the “hERG current change (%, negative = inhibition) at 1uM” value was 10.3%.

Turning to `CC(C)CCNC(=O)NC(=O)COC(=O)C1=COCCO1`, the “hERG current change (%, negative = inhibition) at 1uM” value stood at 15.9%.

Consider `CC1(C)Cc2c(c(-c3ccccc3)nc3[nH][nH]c(=O)c23)CO1`, for which the “hERG current change (%, negative = inhibition) at 1uM” value is reported as 2.61%.

As for `CCc1nc(-n2[nH]c(=O)c3ccccc3c2=O)c2c3c(sc2n1)CCCC3`, the “hERG current change (%, negative = inhibition) at 1uM” value is given as 13.1%.

With `CCN(CC)S(=O)(=O)c1ccc(N2CCOCC2)c(NC(=O)CN2C(=O)NC(C)(c3ccccc3)C2=O)c1` (stereo not shown), the “hERG current change (%, negative = inhibition) at 1uM” value came out at 9.74%.

`COc1ccc(OC)c(/C=N/NC(=O)CCc2ccc(O)c(O)c2)c1`: the “hERG current change (%, negative = inhibition) at 1uM” value amounted to 1.21%.

With `CCOC(=O)Cn1nc(NC(=O)c2ccc3c(c2)OCO3)cc1C`, the “hERG current change (%, negative = inhibition) at 1uM” value is listed as 14.2%.

Take `CCOC(=O)C(=N/O)/C(C)=N/NC(=O)C(=O)Nc1cc(Cl)ccc1Cl`: the “hERG current change (%, negative = inhibition) at 1uM” value was 9.69%.

For the compound `CC(C)N(C(=O)COC(=O)c1ccc([N+](=O)[O-])cc1)c1ccccc1`, the “hERG current change (%, negative = inhibition) at 1uM” value came to 15.8%.

As for `CN1C(=S)SC(N2OC3C(=O)N(c4ccccc4)C(=O)C3C2c2ccccc2)C1(C)C` (stereo not shown), the “hERG current change (%, negative = inhibition) at 1uM” value was found to be 6.25%.

As for `CC(C)C(=O)NCCc1nc2ccccc2n1C`, the “hERG current change (%, negative = inhibition) at 1uM” value came to 7.75%.

As to `COc1cc(OC)cc(-c2cn[nH]c2N)c1`, the “hERG current change (%, negative = inhibition) at 1uM” value is recorded as -4.19%.

Turning to `O=C(NCC1CCCO1)c1cc(Br)c(Br)s1` (stereo not shown), the “hERG current change (%, negative = inhibition) at 1uM” value came out at 7.3%.

For `O=C(COC(=O)CCS(=O)(=O)c1ccc(F)cc1)NC1CCCCC1`, the “hERG current change (%, negative = inhibition) at 1uM” value was -0.0657%.

In the case of `O=C(CSCC(=O)Nc1ccc2ccccc2c1)NCc1ccccc1`, the “hERG current change (%, negative = inhibition) at 1uM” value amounted to 12.6%.

In the case of `CN=C(Nc1cc(C)nn1-c1ccccc1)c1ccccc1`, the “hERG current change (%, negative = inhibition) at 1uM” value is recorded as 6.61%.

As for `Cc1cccc(NC(=O)CNC(=O)COc2cccnc2[N+](=O)[O-])c1C`, the “hERG current change (%, negative = inhibition) at 1uM” value is recorded as 11.8%.

On to `CC1CCN(S(=O)(=O)c2cn(CC(=O)Nc3ccc(OC(F)(F)F)cc3)cn2)CC1`, for which the “hERG current change (%, negative = inhibition) at 1uM” value stood at 15.1%.

Consider `CN1c2ccccc2C(O)=C(C(=S)Nc2ccccc2)S1(=O)=O`, for which the “hERG current change (%, negative = inhibition) at 1uM” value was determined as 19.2%.

`COCCCNC(=O)C(=O)N/N=C/c1cc2c(cc1Br)OCO2`: the “hERG current change (%, negative = inhibition) at 1uM” value was 5.88%.

For the compound `CN1CCN(Cc2c(F)cccc2Cl)CC1`, the “hERG current change (%, negative = inhibition) at 1uM” value came out at 5.84%.

`Cc1ccccc1C(=O)N1CCN(c2ccc(NC(=S)NC(=O)c3ccco3)cc2)CC1`: the “hERG current change (%, negative = inhibition) at 1uM” value is given as -3.1%.

For `c1ccc2cc(CC3=NCCN3)ccc2c1`, the “hERG current change (%, negative = inhibition) at 1uM” value stood at 7.94%.

Turning to `N#Cc1nc(COc2ccc(Br)cc2)oc1N1CCCC1`, the “hERG current change (%, negative = inhibition) at 1uM” value is -0.407%.

As to `CCOC(=O)C1Nc2ccc(C(F)(F)F)cc2C2c3ccccc3CC12` (stereo not shown), the “hERG current change (%, negative = inhibition) at 1uM” value is 5.95%.
